# Test results published in the supplement of paper PMC8728848.
# The list shows a part of the results.
# Legend:
# Assay in all cases: glycan array binding signal (z-score within array); higher = stronger binding
# Conditions in all cases: glycan notation: IUPAC condensed, linker removed
# [1] = target: Gal(b1-4)GlcNAc(b1-3)Gal(b1-4)GlcNAc(b1-2)[Gal(b1-4)GlcNAc(b1-3)Gal(b1-4)GlcNAc(b1-6)]Man(a1-6)[Gal(b1-4)GlcNAc(b1-3)Gal(b1-4)GlcNAc(b1-2)Man(a1-3)]Man(b1-4)GlcNAc(b1-4)GlcNAc
# Summary of the method: (§1)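 The Consortium for Functional Glycomics database supplied 3228 glycan arrays, of which those lacking an available protein sequence were dropped. The binding signal, a within-array Z-score, was averaged across arrays of the same protein sequence and across linkers. Negative scores can be read as non-binding.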
# [2] = target: Gal(b1-4)GlcNAc(b1-3)Gal(b1-4)GlcNAc(b1-2)[Gal(b1-4)GlcNAc(b1-3)Gal(b1-4)GlcNAc(b1-6)]Man(a1-6)[Gal(b1-4)GlcNAc(b1-3)Gal(b1-4)GlcNAc(b1-2)Man(a1-3)]Man(b1-4)GlcNAc(b1-4)[Fuc(a1-6)]GlcNAc
# Summary of the method: as §1
# [3] = target: Gal(b1-4)GlcNAc(b1-3)Gal(b1-4)GlcNAc(b1-3)Gal(b1-4)GlcNAc
# Summary of the method: as §1
# [4] = target: Gal(b1-4)GlcNAc(b1-3)Gal(b1-4)GlcNAc(b1-3)Gal(b1-4)GlcNAc(b1-2)Man(a1-3)[Gal(b1-4)GlcNAc(b1-3)Gal(b1-4)GlcNAc(b1-3)Gal(b1-4)GlcNAc(b1-2)Man(a1-6)]Man(b1-4)GlcNAc(b1-4)GlcNAc
# Summary of the method: as §1
# [5] = target: Gal(b1-4)GlcNAc(b1-3)Gal(b1-4)GlcNAc(b1-3)Gal(b1-4)GlcNAc(b1-2)Man(a1-3)[Gal(b1-4)GlcNAc(b1-3)Gal(b1-4)GlcNAc(b1-3)Gal(b1-4)GlcNAc(b1-2)Man(a1-6)]Man(b1-4)GlcNAc(b1-4)[Fuc(a1-6)]GlcNAc
# Summary of the method: as §1
# [6] = target: Gal(b1-4)GlcNAc(b1-3)Gal(b1-4)GlcNAc(b1-3)Gal(b1-4)GlcNAc(b1-2)[Gal(b1-4)GlcNAc(b1-3)Gal(b1-4)GlcNAc(b1-3)Gal(b1-4)GlcNAc(b1-6)]Man(a1-6)[Gal(b1-4)GlcNAc(b1-3)Gal(b1-4)GlcNAc(b1-3)Gal(b1-4)GlcNAc(b1-2)Man(a1-3)]Man(b1-4)GlcNAc(b1-4)[Fuc(a1-6)]GlcNAc
# Summary of the method: as §1
# [7] = target: Gal(b1-4)GlcNAc(b1-3)Gal(b1-4)GlcNAc(b1-3)Gal(b1-4)GlcNAc(b1-3)Gal(b1-4)GlcNAc(b1-2)Man(a1-3)[Gal(b1-4)GlcNAc(b1-3)Gal(b1-4)GlcNAc(b1-3)Gal(b1-4)GlcNAc(b1-3)Gal(b1-4)GlcNAc(b1-2)Man(a1-6)]Man(b1-4)GlcNAc(b1-4)GlcNAc
# Summary of the method: as §1
# [8] = target: Gal(b1-4)GlcNAc(b1-3)Gal(b1-4)GlcNAc(b1-3)Gal(b1-4)GlcNAc(b1-3)Gal(b1-4)GlcNAc(b1-2)Man(a1-3)[Gal(b1-4)GlcNAc(b1-3)Gal(b1-4)GlcNAc(b1-3)Gal(b1-4)GlcNAc(b1-3)Gal(b1-4)GlcNAc(b1-2)Man(a1-6)]Man(b1-4)GlcNAc(b1-4)[Fuc(a1-6)]GlcNAc
# Summary of the method: as §1
# [9] = target: Gal(b1-4)GlcNAc(b1-3)Gal(b1-4)GlcNAc(b1-3)Gal(b1-4)GlcNAc(b1-3)Gal(b1-4)GlcNAc(b1-2)[Gal(b1-4)GlcNAc(b1-3)Gal(b1-4)GlcNAc(b1-3)Gal(b1-4)GlcNAc(b1-3)Gal(b1-4)GlcNAc(b1-6)]Man(a1-6)[Gal(b1-4)GlcNAc(b1-3)Gal(b1-4)GlcNAc(b1-3)Gal(b1-4)GlcNAc(b1-3)Gal(b1-4)GlcNAc(b1-2)Man(a1-3)]Man(b1-4)GlcNAc(b1-4)[Fuc(a1-6)]GlcNAc
# Summary of the method: as §1
# [10] = target: Gal(b1-4)GlcNAc(b1-3)Gal(b1-4)GlcNAc(b1-3)Gal(b1-4)GlcNAc(b1-3)Gal(b1-4)GlcNAc(b1-3)Gal(b1-4)GlcNAc(b1-2)Man(a1-3)[Gal(b1-4)GlcNAc(b1-3)Gal(b1-4)GlcNAc(b1-3)Gal(b1-4)GlcNAc(b1-3)Gal(b1-4)GlcNAc(b1-3)Gal(b1-4)GlcNAc(b1-2)Man(a1-6)]Man(b1-4)GlcNAc(b1-4)GlcNAc
# Summary of the method: as §1
# [11] = target: Gal(b1-4)GlcNAc(b1-3)Gal(b1-4)GlcNAc(b1-3)Gal(b1-4)GlcNAc(b1-3)Gal(b1-4)GlcNAc(b1-3)Gal(b1-4)GlcNAc(b1-2)Man(a1-3)[Gal(b1-4)GlcNAc(b1-3)Gal(b1-4)GlcNAc(b1-3)Gal(b1-4)GlcNAc(b1-3)Gal(b1-4)GlcNAc(b1-3)Gal(b1-4)GlcNAc(b1-2)Man(a1-6)]Man(b1-4)GlcNAc(b1-4)[Fuc(a1-6)]GlcNAc
# Summary of the method: as §1
# [12] = target: Gal(b1-4)GlcNAc(b1-3)Gal(b1-4)GlcNAc(b1-3)Gal(b1-4)GlcNAc(b1-3)Gal(b1-4)GlcNAc(b1-3)Gal(b1-4)GlcNAc(b1-2)[Gal(b1-4)GlcNAc(b1-3)Gal(b1-4)GlcNAc(b1-3)Gal(b1-4)GlcNAc(b1-3)Gal(b1-4)GlcNAc(b1-3)Gal(b1-4)GlcNAc(b1-6)]Man(a1-6)[Gal(b1-4)GlcNAc(b1-3)Gal(b1-4)GlcNAc(b1-3)Gal(b1-4)GlcNAc(b1-3)Gal(b1-4)GlcNAc(b1-3)Gal(b1-4)GlcNAc(b1-2)Man(a1-3)]Man(b1-4)GlcNAc(b1-4)[Fuc(a1-6)]GlcNAc
# Summary of the method: as §1
# [13] = target: Gal(b1-4)GlcNAc(b1-3)Gal(b1-4)GlcNAc(b1-3)Gal(b1-4)GlcNAc(b1-3)Gal(b1-4)GlcNAc(b1-3)Gal(b1-4)GlcNAc(b1-3)Gal(b1-4)GlcNAc(b1-2)Man(a1-3)[Gal(b1-4)GlcNAc(b1-3)Gal(b1-4)GlcNAc(b1-3)Gal(b1-4)GlcNAc(b1-3)Gal(b1-4)GlcNAc(b1-3)Gal(b1-4)GlcNAc(b1-3)Gal(b1-4)GlcNAc(b1-2)Man(a1-6)]Man(b1-4)GlcNAc(b1-4)GlcNAc
# Summary of the method: as §1
# [14] = target: Gal(b1-4)GlcNAc(b1-3)Gal(b1-4)GlcNAc(b1-3)GalNAc
# Summary of the method: as §1
# [15] = target: Gal(b1-4)GlcNAc(b1-3)Gal(b1-4)GlcNAc(b1-3)[Gal(b1-4)GlcNAc(b1-3)Gal(b1-4)GlcNAc(b1-6)]GalNAc
# Summary of the method: as §1
# [16] = target: Gal(b1-4)GlcNAc(b1-3)Gal(b1-4)GlcNAc(b1-6)[Gal(b1-3)]GalNAc
# Summary of the method: as §1
# [17] = target: Gal(b1-4)GlcNAc(b1-3)Gal(b1-4)[Fuc(a1-3)]GlcNAc(b1-3)Gal(b1-4)[Fuc(a1-3)]GlcNAc
# Summary of the method: as §1
# [18] = target: Gal(b1-4)GlcNAc(b1-3)GalNAc
# Summary of the method: as §1
# [19] = target: Gal(b1-4)GlcNAc(b1-3)[Fuc(a1-3)GlcNAc(b1-6)]Gal(b1-4)Glc
# Summary of the method: as §1
# [20] = target: Gal(b1-4)GlcNAc(b1-3)[Gal(b1-4)GlcNAc(b1-6)]Gal(b1-4)GlcNAc
# Summary of the method: as §1
# [21] = target: Gal(b1-4)GlcNAc(b1-3)[GlcNAc(b1-6)]Gal(b1-4)GlcNAc
# Summary of the method: as §1
# [22] = target: Gal(b1-4)GlcNAc(b1-6)Gal(b1-4)GlcNAc
# Summary of the method: as §1
# [23] = target: Gal(b1-4)GlcNAc(b1-6)GalNAc
# Summary of the method: as §1
# [24] = target: Gal(b1-4)GlcNAc(b1-6)[Gal(b1-3)]GalNAc
# Summary of the method: as §1
# [25] = target: Gal(b1-4)GlcNAc(b1-6)[Gal(b1-4)GlcNAc(b1-3)]GalNAc
# Summary of the method: as §1
# Gal(b1-4)GlcNAc6P = target: Gal(b1-4)GlcNAc6P
# Summary of the method: as §1
# Gal(b1-6)Gal = target: Gal(b1-6)Gal
# Summary of the method: as §1
# Gal3S(b1-3)GalNAc = target: Gal3S(b1-3)GalNAc
# Summary of the method: as §1
# Gal3S(b1-3)GlcNAc = target: Gal3S(b1-3)GlcNAc
# Summary of the method: as §1
# [26] = target: Gal3S(b1-3)[Fuc(a1-4)]GlcNAc
# Summary of the method: as §1
# Gal3S(b1-4)Glc = target: Gal3S(b1-4)Glc
# Summary of the method: as §1
# Gal3S(b1-4)Glc6S = target: Gal3S(b1-4)Glc6S
# Summary of the method: as §1
# Gal3S(b1-4)GlcNAc = target: Gal3S(b1-4)GlcNAc
# Summary of the method: as §1
# [27] = target: Gal3S(b1-4)[Fuc(a1-3)]Glc6S
# Summary of the method: as §1
# [28] = target: Gal3S(b1-4)[Fuc(a1-3)]GlcNAc
# Summary of the method: as §1
# [29] = target: Gal3S(b1-4)[Fuc(a1-3)]GlcNAc6S
# Summary of the method: as §1
# Gal3S4S(b1-4)GlcNAc = target: Gal3S4S(b1-4)GlcNAc
# Summary of the method: as §1
# Gal3S6S(b1-4)GlcNAc = target: Gal3S6S(b1-4)GlcNAc
# Summary of the method: as §1
# Gal3S6S(b1-4)GlcNAc6S = target: Gal3S6S(b1-4)GlcNAc6S
# Summary of the method: as §1
# Gal4S(b1-4)GlcNAc = target: Gal4S(b1-4)GlcNAc
# Summary of the method: as §1
# Gal4S6S(b1-4)GlcNAc = target: Gal4S6S(b1-4)GlcNAc
# Summary of the method: as §1
# Gal6P(b1-4)GlcNAc = target: Gal6P(b1-4)GlcNAc
# Summary of the method: as §1
# Gal6S(b1-3)GlcNAc = target: Gal6S(b1-3)GlcNAc
# Summary of the method: as §1
# Gal6S(b1-3)GlcNAc6S = target: Gal6S(b1-3)GlcNAc6S
# Summary of the method: as §1
# Gal6S(b1-4)Glc = target: Gal6S(b1-4)Glc
# Summary of the method: as §1
binder,measurement,setting,value
CBM40 CPF071 (Clostridium perfringens) (protein) MAHHHHHHVGTGSNDDDDKSPDPMLSSLGEYKDINLESSNASNITYDLEKYKNLDEGTIVVRFNSKDSKIQSLLGISNSKTKNGYFNFYVTNSRVGFELRNQKNEGNTQNGTENLVHMYKDVALNDGDNTVALKIEKNKGYKLFLNGKMIKEVKDTNTKFLNNIENLDSAFIGKTNRYGQSNEYNFKGNIGFMNIYNEPLGDDYLLSKTGETK,glycan array binding signal (z-score),[1],0.616
same,glycan array binding signal (z-score),[2],-0.522
same,glycan array binding signal (z-score),[3],-0.296
same,glycan array binding signal (z-score),[4],-0.093
same,glycan array binding signal (z-score),[5],-0.39
same,glycan array binding signal (z-score),[6],0.435
same,glycan array binding signal (z-score),[7],-0.376
same,glycan array binding signal (z-score),[8],0.149
same,glycan array binding signal (z-score),[9],0.876
same,glycan array binding signal (z-score),[10],-0.037
same,glycan array binding signal (z-score),[11],-0.285
same,glycan array binding signal (z-score),[12],-0.381
same,glycan array binding signal (z-score),[13],-0.325
same,glycan array binding signal (z-score),[14],0.218
same,glycan array binding signal (z-score),[15],0.16
same,glycan array binding signal (z-score),[16],-0.258
same,glycan array binding signal (z-score),[17],-0.133
same,glycan array binding signal (z-score),[18],-0.419
same,glycan array binding signal (z-score),[19],-0.209
same,glycan array binding signal (z-score),[20],-0.457
same,glycan array binding signal (z-score),[21],-0.405
same,glycan array binding signal (z-score),[22],-0.512
same,glycan array binding signal (z-score),[23],-0.021
same,glycan array binding signal (z-score),[24],-0.004
same,glycan array binding signal (z-score),[25],-0.382
same,glycan array binding signal (z-score),Gal(b1-4)GlcNAc6P,-0.265
same,glycan array binding signal (z-score),Gal(b1-6)Gal,-0.163
same,glycan array binding signal (z-score),Gal3S(b1-3)GalNAc,-0.43
same,glycan array binding signal (z-score),Gal3S(b1-3)GlcNAc,-0.411
same,glycan array binding signal (z-score),[26],-0.35
same,glycan array binding signal (z-score),Gal3S(b1-4)Glc,-0.474
same,glycan array binding signal (z-score),Gal3S(b1-4)Glc6S,-0.305
same,glycan array binding signal (z-score),Gal3S(b1-4)GlcNAc,-0.369
same,glycan array binding signal (z-score),[27],-0.052
same,glycan array binding signal (z-score),[28],-0.548
same,glycan array binding signal (z-score),[29],-0.109
same,glycan array binding signal (z-score),Gal3S4S(b1-4)GlcNAc,0.602
same,glycan array binding signal (z-score),Gal3S6S(b1-4)GlcNAc,-0.144
same,glycan array binding signal (z-score),Gal3S6S(b1-4)GlcNAc6S,-0.278
same,glycan array binding signal (z-score),Gal4S(b1-4)GlcNAc,0.207
same,glycan array binding signal (z-score),Gal4S6S(b1-4)GlcNAc,-0.321
same,glycan array binding signal (z-score),Gal6P(b1-4)GlcNAc,-0.436
same,glycan array binding signal (z-score),Gal6S(b1-3)GlcNAc,-0.48
same,glycan array binding signal (z-score),Gal6S(b1-3)GlcNAc6S,0.541
same,glycan array binding signal (z-score),Gal6S(b1-4)Glc,-0.246
